Hit rate of the full screen: of about 390,000 compounds, about 17,000 (4.4%) were called active. The shares of active, inactive and inconclusive entries below differ from those in the screen. Calls come from the whole dose curve; as a rule, active = well fitted inhibition curve with a large enough effect; inconclusive = small, poorly fitted or top-dose-only effect; inactive = no such curve, though single readings can be large or run the other way. Where the call is inconclusive, the potency comes from a doubtful curve fit.
biological target: Lysine-specific demethylase 4A (Homo sapiens) (UniProt O75164); assay: qHTS Assay for Inhibitors of JMJD2A-Tudor Domain; details: AlphaScreen JMJD2A-Tudor / H3K4me3 peptide binding; activity change, negative = inhibition: at 114 µM (top of the series); note: nearly all actives have a fitted effect of over 50% in size
Sequence of UniProt O75164 (O75164 whole entry, looked up, the tested form may be a part): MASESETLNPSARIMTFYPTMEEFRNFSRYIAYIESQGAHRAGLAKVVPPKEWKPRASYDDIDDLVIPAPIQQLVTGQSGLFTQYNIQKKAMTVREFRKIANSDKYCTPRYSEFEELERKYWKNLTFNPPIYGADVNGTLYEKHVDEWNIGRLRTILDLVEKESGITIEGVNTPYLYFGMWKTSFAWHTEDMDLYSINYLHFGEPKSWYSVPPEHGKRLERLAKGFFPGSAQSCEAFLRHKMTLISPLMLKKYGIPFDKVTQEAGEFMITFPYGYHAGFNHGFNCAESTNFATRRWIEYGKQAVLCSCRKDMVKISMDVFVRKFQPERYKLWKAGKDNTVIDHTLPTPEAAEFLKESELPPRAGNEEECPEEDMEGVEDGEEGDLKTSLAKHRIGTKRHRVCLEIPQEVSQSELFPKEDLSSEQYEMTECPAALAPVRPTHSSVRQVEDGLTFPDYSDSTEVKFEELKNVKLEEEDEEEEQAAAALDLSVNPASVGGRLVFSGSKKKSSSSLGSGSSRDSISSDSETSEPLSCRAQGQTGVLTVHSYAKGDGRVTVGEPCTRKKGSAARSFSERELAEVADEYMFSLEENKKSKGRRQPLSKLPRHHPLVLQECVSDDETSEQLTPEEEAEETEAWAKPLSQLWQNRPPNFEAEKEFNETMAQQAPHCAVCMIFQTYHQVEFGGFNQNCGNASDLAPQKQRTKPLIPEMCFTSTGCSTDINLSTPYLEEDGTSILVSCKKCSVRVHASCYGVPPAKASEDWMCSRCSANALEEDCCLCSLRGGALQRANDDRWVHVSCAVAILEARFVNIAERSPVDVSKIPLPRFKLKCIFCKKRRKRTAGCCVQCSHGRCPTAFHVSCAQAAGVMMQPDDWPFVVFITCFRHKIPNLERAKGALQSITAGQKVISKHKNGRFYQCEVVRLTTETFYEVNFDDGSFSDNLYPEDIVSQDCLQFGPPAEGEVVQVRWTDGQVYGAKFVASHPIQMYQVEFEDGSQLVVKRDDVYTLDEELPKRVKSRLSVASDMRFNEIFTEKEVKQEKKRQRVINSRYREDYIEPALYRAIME
% is set by controls: 0 for no effect and ±100 for the full control effect; potency is the fitted concentration of half-maximal effect; tags give direction and shape of the fitted curve.

| Compound | activity change, negative = inhibition | Potency |
| --- | --- | --- |
| CC(NC(=O)CN(C)Cc1nc2ccccc2c(=O)[nH]1)c1ccccc1 (configuration not stated) | inactive: 14.4% |  |
| CCCCC1=CC2=CC(=O)C(C)(OC(=O)CC)C(=O)C2=CN1Cc1ccc(OC)cc1 (configuration not stated) |  | inconclusive: 89.1 µM [inhibitor, partial curve] |
| COc1cc(C(=O)N2CCN(C3CCCCC3)CC2)cc(OC)c1OC |  | active: 56.2 µM |
| COc1ccc(CN2CCc3c([nH]c4ccccc34)C2)cc1Br |  | active: 20 µM |
| CCc1cc2c3c(c1)C(C)CC(C)(C)N3C(=O)C2=O (configuration not stated) |  | inconclusive: 56.2 µM [inhibitor, partial curve] |
| CCOC(=O)c1c(NC(=O)CCC(=O)O)sc2c1CCCCC2 |  | inconclusive: 89.1 µM [inhibitor, single point] |
| Cc1ccc(S(=O)(=O)N2CCN(C(=O)c3nn(C(C)C)c(=O)c4ccccc34)CC2)cc1C |  | inconclusive: 79.4 µM [inhibitor, single point] |
| S=C(NN=C(c1ccccc1)c1ccccn1)N(Cc1ccccn1)Cc1ccccn1 |  | active: 12.6 µM |
| O=C(N/N=C\c1ccc(-c2ccccc2[N+](=O)[O-])o1)C1COc2cc3ccccc3cc2O1 (configuration not stated) |  | inconclusive: 44.7 µM [inhibitor, partial curve] |
| Brc1cc2c(cc1CSc1ncccn1)OCO2 | inactive: 51.2% |  |
| O=C(CC1Oc2ccccc2NC1=O)NC1CCCC1 (configuration not stated) | inactive: -6.21% |  |
| COC(=O)CCC(=O)OC1(C)C(=O)C=C2C=C(C3CC3)N(C(CO)CO)C=C2C1=O (configuration not stated) | inactive: -12.4% |  |
| COc1ccc(C2c3c(nc(CCCc4ccccc4)[nH]c3=O)Oc3ccc4ccccc4c32)cc1OC (configuration not stated) | inactive: -32.7% |  |
| CC(CCCC(C)(C)O)NCCO (configuration not stated) |  | inconclusive: 3.55 µM [inhibitor, single point] |
| Clc1cccc(CN2CCc3c([nH]c4ccccc34)C2)c1 |  | active: 20 µM |
| Cc1ccccc1CC1(CO)CCCN(C(=O)c2ccc3ncccc3c2)C1 (configuration not stated) |  | active: 8.91 µM |
| N#CC1=C2N=C(N)c3ccccc3N2C2=C(C(=O)CCC2)C1c1ccc(Cl)cc1 (configuration not stated) |  | inconclusive: 25.1 µM [inhibitor, full curve] |
| COc1ccccc1CCC(=O)OCC(=O)NC1CC1 |  | inconclusive: 39.8 µM [inhibitor, single point] |
| CC(=O)c1cc(-c2ccccc2)n(CC(=O)N2CCC(C)CC2)c1C | inactive: -11.1% |  |
| C=CCOc1ccccc1CNc1ccc2c(c1)OCCO2 |  | active: 50.1 µM |
| Cc1nc2ccccc2c(=O)n1NC(=O)c1cncc(Br)c1 | inactive: -12.7% |  |
| COc1ccc(N2CCN(S(=O)(=O)c3ccc(-c4cc(C)no4)s3)CC2)cc1 |  | inconclusive: 63.1 µM [inhibitor, partial curve, poor fit] |
| COc1ccccc1CNc1cncnc1 |  | inconclusive: 25.1 µM [inhibitor, partial curve, poor fit] |
| COc1cc(O)c(CC=C(C)C)c(O)c1C(=O)CCc1ccc(O)cc1 |  | inconclusive: 79.4 µM [inhibitor, single point] |

| Compound | activity change, negative = inhibition | Potency |
| --- | --- | --- |
| COC(=O)c1ccccc1NC(=O)COC(=O)/C=C/c1ccco1 | inactive: -12.8% |  |
| Cc1cc(C)cc(NS(=O)(=O)c2ccc(NC(=S)NC(=O)c3ccc(Br)o3)cc2)c1 |  | inconclusive: 56.2 µM [inhibitor, partial curve] |
| COCc1c(C(=O)N2CCN(c3ccc(C(F)(F)F)cn3)CC2)oc2ccccc12 | inactive: -9.02% |  |
| C=C(C)CN(CC)C(=O)CSc1ccc(S(=O)(=O)N2CCN(Cc3ccccc3)CC2)cn1 | inactive: -12.5% |  |
| CC(C)(C)c1nc(S(=O)(=O)c2ccc(Cl)cc2)c(N2CCOCC2)o1 |  | inconclusive: 100 µM [inhibitor, single point] |
| CCn1c(SCc2ccc(Cl)cc2)nnc1-c1ccccc1 | inactive: -6.87% [at 11.4 µM] |  |
| CC(C)CC(=O)NC(=S)NNC(=O)c1ccc([N+](=O)[O-])cc1 |  | inconclusive: 89.1 µM [inhibitor, single point] |
| COc1ccccc1CN1[C@@H](CC(=O)O)c2cc(F)ccc2S1(=O)=O | inactive: -12.8% |  |
| COc1ccc(C(=O)C(C)OC(=O)c2nc3nccc(C)n3n2)cc1 (configuration not stated) | inactive: -10.1% |  |
| Cc1ccc(NC(=S)NCCc2c[nH]c3ccccc23)c(C)c1 |  | inconclusive: 50.1 µM [inhibitor, partial curve] |
| O=C(c1cnc2n(c1=O)CCS2)N1CCN(C(c2ccccc2)c2ccc(Cl)cc2)CC1 (configuration not stated) |  | inconclusive: 89.1 µM [inhibitor, partial curve, poor fit] |
| COc1ccc(NCCNc2ccc(OC)cc2)cc1 |  | inconclusive: 44.7 µM [inhibitor, partial curve] |
| CSCCC(NC(=O)c1ccco1)C(=O)NCC(c1ccccc1)N(C)C (configuration not stated) | inactive: 1.35% |  |
| COc1cccc(CNC(=O)Cn2ccc3cc(S(=O)(=O)N4CCCC4)ccc32)c1OC |  | inconclusive: 20 µM [inhibitor, partial curve] |
| CC1CCCN(CCCNC(=O)c2ccc3c(c2)N(Cc2cccc(Cl)c2)C(=O)c2ccccc2S3(=O)=O)C1 (configuration not stated) |  | inconclusive: 44.7 µM [inhibitor, partial curve] |
| COC(=O)c1ccc(CN2CCC(Oc3cccc(C(=O)N4CCOCC4)c3)CC2)cc1 |  | inconclusive: 89.1 µM [inhibitor, single point] |
| COc1ccccc1C(=O)Nc1cccc(C(=O)OCc2cc(=O)n3nc(C4CC4)sc3n2)c1 | inactive: -4.3% |  |
| COc1ccc(NC2=C(C(C)=O)C(c3ccc(OC)cc3)C(C(C)=O)C(C)(O)C2)cc1 (configuration not stated) | inactive: -5.26% [at 11.4 µM] |  |
| CCOC(=O)c1sc(NC(=O)CCCCl)nc1C | inactive: 4.26% |  |
| O=[N+]([O-])c1cccc(-c2csc(Nc3ccccc3)n2)c1 |  | inconclusive: 31.6 µM [inhibitor, partial curve] |
| CN1CCN(C2CCN(Cc3ccc(O)c4ncccc34)CC2)CC1 |  | active: 44.7 µM |
| O=C(Cn1cnc2cc([N+](=O)[O-])ccc2c1=O)Nc1ccccc1-c1ccccc1 |  | inconclusive: 31.6 µM [inhibitor, partial curve] |
| CCCCn1c(=NC(=O)C(C)(C)Oc2ccc(Cl)cc2)c(C(=O)OCC)cc2c(=O)n3ccccc3nc21 | inactive: 1.37% |  |
